Source: publication PMC6602471
Some of the results follow. At the low end of the ranking the order means little.

The sequences below were run against T1, ELK1 (UniProt P19419) (assay: custom PBM). Details: custom protein-binding microarray; buffer, salt, pH and temperature not stated; high values mean tight binding; double strand, one strand shown.
T1 sequence: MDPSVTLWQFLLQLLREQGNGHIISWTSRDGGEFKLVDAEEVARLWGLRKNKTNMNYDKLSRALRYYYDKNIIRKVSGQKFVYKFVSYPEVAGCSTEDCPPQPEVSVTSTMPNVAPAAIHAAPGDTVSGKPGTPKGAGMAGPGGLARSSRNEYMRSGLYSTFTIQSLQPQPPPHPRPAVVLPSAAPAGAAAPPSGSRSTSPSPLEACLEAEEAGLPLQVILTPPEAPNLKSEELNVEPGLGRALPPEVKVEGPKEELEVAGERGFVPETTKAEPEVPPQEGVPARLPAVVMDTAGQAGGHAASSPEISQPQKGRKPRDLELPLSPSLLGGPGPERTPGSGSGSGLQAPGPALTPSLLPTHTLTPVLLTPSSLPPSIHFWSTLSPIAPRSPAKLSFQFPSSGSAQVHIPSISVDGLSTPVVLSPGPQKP

Row | Sequence | binding signal (log fluorescence intensity)
1 | CGTAAGTGTCGTAAACGTCGGATATCCGGTTCTTCTGTCTTGATTCGCTTGACGCTGCTG | 12.4
2 | AAAAGGGAAGACGGTTGTGGTAGTTCCGGGTATTAAGTCTTGATTCGCTTGACGCTGCTG | 11.2
3 | CGAAAGTGTCGTAAACGTCGGATATCCGGTTCTTCTGTCTTGATTCGCTTGACGCTGCTG | 12.5
4 | TACGGACTTATATATGCGAATGCACATGAATAGACCGTCTTGATTCGCTTGACGCTGCTG | 8.85
5 | CAGCATAGGACTTCTTCGCTGAAGCAATTGATAACCGTCTTGATTCGCTTGACGCTGCTG | 8.82
6 | CGGAAGTGTCGAAAACGTCGGATATCCGGTTCTTCTGTCTTGATTCGCTTGACGCTGCTG | 12.4
7 | CGGAAGTGTCGTTAACGTCGGATATCCGGTTCTTCTGTCTTGATTCGCTTGACGCTGCTG | 12.6
8 | CACAATTTCTACAGTAATGTAGCACGCGTAACTCCTGTCTTGATTCGCTTGACGCTGCTG | 9.02
9 | CAAAATTTTTACAGTAATGTAGCACGCGTAACTCCTGTCTTGATTCGCTTGACGCTGCTG | 8.94
10 | CAGCATAGGACTTCTTCCCTGAAGCAATAGATAACCGTCTTGATTCGCTTGACGCTGCTG | 8.97
11 | TGTCGGGTAAGGGAATGTACATCACGTGAATGAAAAGTCTTGATTCGCTTGACGCTGCTG | 8.92
12 | CACAATTTTTACAGTAATGTAGCACGTGTAACTCCTGTCTTGATTCGCTTGACGCTGCTG | 8.82
13 | GCTGCTGCGGTGCATACCCCACCGTATGTGACCCCGGTCTTGATTCGCTTGACGCTGCTG | 8.86
14 | GTGTATAGGATCCCATCCAACACACGTGTGAAAATGGTCTTGATTCGCTTGACGCTGCTG | 8.88
15 | TACTGACTTATATATGCGAATGCACATGAAAAGACCGTCTTGATTCGCTTGACGCTGCTG | 8.85
16 | GTGTATAGGATCCCATCCAACACACGTGTTAAAATTGTCTTGATTCGCTTGACGCTGCTG | 8.99
17 | CACAACTTTTACAGTAATGTAGCACGCGTAACTCCTGTCTTGATTCGCTTGACGCTGCTG | 8.93
18 | CACAATTTTGACAGTAATGTAGCACGCGTAACTCCTGTCTTGATTCGCTTGACGCTGCTG | 8.88
19 | GGAAAAAGGCCCAGGGTAACACCTGAAGTGGGCTTAGTCTTGATTCGCTTGACGCTGCTG | 8.97
20 | GTGTATAGGATCCCATCTAACACACGTGTTAAAATGGTCTTGATTCGCTTGACGCTGCTG | 8.71

Row | Sequence | binding signal (log fluorescence intensity)
21 | TGTCGGGTAATGGAATGTAGATCACGTGAATGAAAAGTCTTGATTCGCTTGACGCTGCTG | 8.85
22 | TAAAGGGAGGACGGTTGTGGTAGTTCCGGGTATTAAGTCTTGATTCGCTTGACGCTGCTG | 11.3
23 | TACTGACTTATATATGCGAATGCACATGAATAGTCCGTCTTGATTCGCTTGACGCTGCTG | 8.75
24 | TAAAGGGAAGACGGTTGTGGTAGATCCGGGTATTAAGTCTTGATTCGCTTGACGCTGCTG | 9.61
25 | TAAAGGGAAGACGGTTGTGGTAGTTCCGGGTTTTAAGTCTTGATTCGCTTGACGCTGCTG | 11.2
26 | TCCGGCTACCAGCTCCAACCACTTCAGGCCTTGTAGGTCTTGATTCGCTTGACGCTGCTG | 9.08
27 | CAGCATAGGACTTCATCCCTGAAGCAATTGATAACCGTCTTGATTCGCTTGACGCTGCTG | 8.95
28 | CACAATTTTTACAGTAATGTAGCACGCGTAACTCGTGTCTTGATTCGCTTGACGCTGCTG | 8.93
29 | TAAAGGGAAGCCGGTTGTGGTAGTTCCGGGTATTAAGTCTTGATTCGCTTGACGCTGCTG | 11.8
30 | GCTGCTGCGGTGCATACCCCAGCGGATGTGACCCCGGTCTTGATTCGCTTGACGCTGCTG | 9.14
31 | GATTAATATCTGCCCTTATTCGCACGTGCCATAACAGTCTTGATTCGCTTGACGCTGCTG | 8.95
32 | CACAATTTTTTCAGTAATGTAGCACGCGTAACTCCTGTCTTGATTCGCTTGACGCTGCTG | 8.81
33 | GTGTATAGGATCCCATCCAACACACGTGTTATAATGGTCTTGATTCGCTTGACGCTGCTG | 8.89
34 | CGGAAGTGTCGTAAAGGTCGGATATCCGGTTCTTCTGTCTTGATTCGCTTGACGCTGCTG | 12.4
35 | TACTGACTTATATATGCGAATGCACATGGATAGACCGTCTTGATTCGCTTGACGCTGCTG | 8.88
36 | GCTGCTGCGGTGCATACCCCACCGGATGTGTCCCCGGTCTTGATTCGCTTGACGCTGCTG | 9.8
37 | TACTGACTTATATATGCGAATGCACATCAATAGACCGTCTTGATTCGCTTGACGCTGCTG | 8.86
38 | GGAAAAAGGCCCAGGGTAACACCGGAATTGGGCTTAGTCTTGATTCGCTTGACGCTGCTG | 9.46
39 | CGGAAGTGGCGTAAACGTCGGATATCCGGTTCTTCTGTCTTGATTCGCTTGACGCTGCTG | 12.1
40 | GTGTATAGGATCCCATCCAACACACGTGTTAAAACGGTCTTGATTCGCTTGACGCTGCTG | 8.76
